Experimental data from the RNAGym collection of RNA variant scans (doi:10.1093/nar/gkz1192).
The source gives no read counts; variants with many changes may rest on few reads.

B1: CPEB3 Ribozyme (parent)
chain: UAACAGGGGGCCACAGCAGAAGCGUUCACGUCGCAGCCCCUGUCAGAUUCUGGUGAAUCUGCGAAUUCUGCUGUAUAUCUC

Variants of: B1
Experiment: self-cleavage, relative activity (ratio to wild type); higher = more cleavage; in vitro, sequencing
Summary of the method: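 For each CPEB3 ribozyme variant, relative activity is its cleaved/total read fraction divided by the unmutated ribozyme's. Barcoded error-prone PCR libraries were transcribed by T7 RNA polymerase (5 hours, 37°C) and held in DNase I for 15 min before an EDTA stop, with cleavage occurring throughout. Template-switching reverse transcription and Illumina sequencing were used to read the RNAs. A 5-read minimum applied, and results are the mean of three batches.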

Variant	self-cleavage
UAGCAGGGGGCCACAGCAGGAGCGUUCACGUCGUAGCCCCUGUCAGAUUCUGGUGAAUCUGCGUAUUCUGCUGUAUAUCCC	0.2
UAGCAGGGGGCCACAGCAGGAGCGUUCACGUCGCAGCCCCUGUCAGAUUCUGGUGAGUCCGCGAAUUCUGCUGUAUAUCUC	0.47
UAGCAGGGGGCCACAGCUGAAGCGUUCACGCCGCAGCCCCUGCCAGAUUCUGGUGAAUCUGCGAAUUCUGCUGUAUAUCUC	0.6
UAGCAGGGGGCCACAGCAGGAGCGUUCACGUCGCAGCCCCUGUCAGAUUUUGGUGAAUCUGCGAAUUCUGCUGUAUAUCUC	0.98
UAGCAGGGGGCCACAGCAGGGGCGUUCACGCCGCAGCCCCUGUCAGAUUCUGGUGAAUCUGCGAAUUCUGCUGUAUACCUC	0.63
UAGCAGGGGGCCACAGCUGAAGCGUUCACGUCGCAGCCCCUGUCAGAUUAGGGUGAAUCUGCGAAUUCUGCUGUAUAUCUC	0.32
UAGCAGGGGGCCACAGCAGGAGCUUUCACGAUGCAGCCCCUGUCAGAUUCUGGUGGAUCUGCGAAUCCUGCUGUAUAUCUC	0.14
UAGCAGGGGGCCACAGCAGGAGCGUUCACAUCGCAGCCCCUGUCAGAUUCUGGUGAAUCUGCGAAUUCUGCUGUAUAUCUC	0.2
UAGCAGGGGGCCACAGCUGAAGCGUUCACGUCGCAGCCCCAGUCAGAUUCUGGUGAAUCUGCGAAUUCUGCUGUGUAUCUC	0.42
UAGCAGGGGGCCACAGCAGGAGCGUUCACGUCGCAGCCCCUGUCAGAUUCUGGUGGAUCUGCGAAUUCUGCUGUAUAUCUC	0.85
UAGCAGGGGGCCACAGCUGAAGCGUUCACGUCGCAGCCCCUGUCAGAAUCUGGUGAAUCUGCGAGUUCUGCUGUAUAUCUC	0.07
UAGCAGGGGGCCACAGCUGAAGCGUCCACGUCGCAGCCCCUGUCAGAUUCUGGUGAAUCUGCGAAUUCUGCUGUAUAUCUC	0.28
UAGCAGGGGGCCACAGCAGCAGCGUUCACGUCGCAGCCCCUGUCAGAUUCUGGUGAAUCUGCGAAUCCUGCUGUAUAUCUC	0.23
UAGCAGGGGGCCACAGCAGGAGCGUUCACGUCGCGGCUCCUGUCAGACUCUGGUGGAUCUGCGAAUACUGCUGUAUAUCUC	0.54
UAGCAGGGGGCCACAGCAGGAGCGUUCUCGUCGCAGCACCUGCCAGAUUCUGGUGAAUCUACGAAUUCUGCUGUAUAUCUC	0.06
UAGCAGGGGGCCACAGCUGAAGCGUUCACGUCGCAGCCCCUGUCAGAUUCUGGUGAAUCAGCGAAUUCUGCUGUAUAUCUC	0.64
UAGCAGGGGGCCACAGCAGGAGCGUUCACGUCGCAGCCCCUGUCAGAUUCUGGUGUAUCUGCGGAUUCUGCUGUAUAUCUC	0.37

Variant	self-cleavage
UAGCAGGGGGCCACAGCUGAAGCGUUCACGUCGCAGCCCCUGUCAGAUUCUGGUGAAUCUGCGAAUCCUGCUGUAUAUCUC	0.28
UAGCAGGGGGCCACAGCAGGAGCGUUCGCGUCGCAGCCCCUGUCAGAUUCUGGUGAAUCUGCGAAUUCUGCUGUAUAUCUC	0.28
UAGCAGGGGGCCACAGCAGGAGCGAUCACGUCGCAGCCCUUGACAGAUUCUGGUGAAUCCGCGAAUUCUGCUGUAUAUCUC	0.09
UAGCAGGGGGCCACAGCAGCAGCGCUCACGUCGCAGCCCCUGUCAGAUUCUGGUGAAUCUGCGAAUUCUGCUGUAUAUCUC	0.68
UAGCAGGGGGCCACAGCUGAAGCGUUCACGUCGCAGCGCCUGUCAGAUACUGGUGAAUCUGCGAAUUCAGCUGUACAUCCC	0.09
UAGCAGGGGGCCACAGCAGGAGCGUUCGCGUCGCAGCCCCUGUCAGAUUCAGGUGAAUCUGCGAAUUCUGCUGUAUAUCUC	0.75
UAGCAGGGGGCCACAGCUGAAGCGUUCACGUCGCAACCCCUGUCAGAUUCUGGUGAAUCUGCGAAUUCUGCUGUAUAUCUC	0.34
UAGCAGGGGGCCACAGCAGGAGCGUUCACGUCGCAGCCCCUGUCAGAUUCUGGUGAAUCUGCGUAUUCUUCUGUAUAUCUC	0.27
UAGCAGGGGGCCACAGCUGAAGCGUCCACGUCGCAGCCCCUGUCAGAUUCUGGGGGAUCUGCGAAUUCUGCUGUAUAUCUC	0.11
UAGCAGGGGGCCACAGCUGAAGCGUUCACGUCGCAGCCCCUGUCAGAUUCCGGUGAAUCUGCGAAUUCUGCUGUAUACCUC	0.55
UAGCAGGGGGCCACAGCAGGGGCGUUCACGUCGCAGCCCCUGUCAGAUUCUGGUGAAUCCGCGAAUUCUGCUGUAUAUCUC	0.23
UAGCAGGGGGCCACAGCAGGAACGUUCACGUCGCUGCCCCUGUCAGAUUCUGGUGAAUCUGCGAAUUCUGCUGUAUAUCUC	0.06
UAGCAGGGGGCCACAGCUGAAGCGUUCACGUCGCAGCCCCUGUCAGAUUCCGGUGAAUCUGCGAAUACUGCUGUAUAUCUC	0.41
UAGCAGGGGGCCACAGCAGGAGUGUUCUCGUCGCAGCCCCUGUCAGAUUCUGGUGAAUCAGCGAGUUCUUCUGUAUAUCUC	0.12
UAGCAGGGGGCCACAGCAGGAGCGUUCACGUUGCAGCCCCUGUCGGACUCUGGUGAAUCUGCGAAUUCUGCUGUAUAUCUC	0.08
UAGCAGGGGGCCACAGCAGCAGCGUUCACGUCGGAGCCCCUGUCAGAUUCUGGUGAAUCUGCGAUUUAUGCUGUAUAUCUC	0.04
UAGCAGGGGGCCACAGCUGAAGCGUCCACGUCGCAACCCCUGUCAGAUUCUAGUGAAUCUGCGAAUUCUGCUGUAUAUCCC	0.35
